Reference: PubChem BioAssay AID902 (National Center for Advancing Translational Sciences (NCATS), 2007)
About 1,900 (1.5%) of roughly 130,000 compounds were called active. The shares of active, inactive and inconclusive entries below differ from those in the screen. Calls follow the shape of the dose curve; as a rule, active = well fitted cell-killing curve with a large enough effect; inconclusive = small, poorly fitted or top-dose-only effect; inactive = no such curve, though single readings can be large or run the other way. A potency beside an inconclusive call is a rough fit, not a confirmed value.

Test: qHTS Screen for Compounds that Selectively Target Cancer Cells with p53 Mutations: Cytotoxicity of p53ts Cells at the Nonpermissive Temperature; also: nearly all actives have a fitted effect of over 55% in size
Conditions: H1299-p53A138V viability at 39C, ATP luminescence, 24 h; activity change, negative = cell killing: at 46.1 µM (top of the series)
% is scaled to controls: 0 for no effect and ±100 for the full control effect; potency is read from the fitted curve at half-maximal effect; tags tell the direction and shape of the fitted curve.

SMILES	Potency	activity change, negative = cell killing
Cc1cc(C)c(-c2cc([C@H](C)O/N=C3/[C@H]4OC4[C@@H](O)[C@H]4[C@H]3CCn3c(=O)n(-c5ccccc5)c(=O)n34)on2)c(C)c1 (some centres undefined)	inconclusive: 5.01 µM [cytotoxic, single point]	
O=C(N/N=C/c1ccc(O)cc1O)c1cc(-c2ccccc2)n[nH]1	active: 10 µM	
CCCC[C@@H]1C[C@H]1[C@@H](NP(=O)(c1ccccc1)c1ccccc1)c1ccccc1OC	active: 25.1 µM	
O=C(/C=C\Nc1ccc2c(c1)OCO2)c1ccccn1	active: 2.51 µM	
CC(C)(C)n1ncc2c(=O)n(CC(=O)NCc3ccc(F)cc3)cnc21	inconclusive: 12.6 µM [cytotoxic, partial curve]	
O=C(NCc1ccccn1)C1COc2ccccc2O1 (centres undefined)		inactive: 12.4%
CC1CN(C(=O)c2cn3ccccc3n2)CC(C)O1 (centres undefined)	inconclusive: 10 µM [cytotoxic, partial curve]	
C=CCNc1nc2c(c(=O)[nH]c(=O)n2C)n1Cc1cccc(C)c1	active: 7.94 µM	
Cc1ccc(-n2ncc(C(=O)NCCN3CCCC3)c2C2CCN(C(=O)OC(C)(C)C)CC2)cc1C	inconclusive: 12.6 µM [cytotoxic, partial curve, poor fit]	
Fc1ccc(-c2nn(-c3ccccc3Cl)c3c2cnc2ccccc23)cc1		inconclusive: -53.9% [cytotoxic]
CCCCCn1c(CCNC(=O)c2ccc(F)cc2)nc2ccccc21	inconclusive: 20 µM [cytotoxic, single point]	
COc1ccc(-c2cn3ccc4ccccc4c3n2)cc1	active: 11.2 µM	
Fc1ccccc1Cc1cn2cc(-c3ccc(Cl)cc3)nc2s1	active: 10 µM	
Cc1ccccc1Nc1c(-c2cc(Br)ccc2F)nc2ccccn12	inconclusive: 12.6 µM [cytotoxic, single point]	
Cc1ccccc1-c1nc2cc(N)ccc2o1	inconclusive: 12.6 µM [cytotoxic, partial curve]	
COC(=O)c1sc2nc3c(cc2c1N)COC(C)(C)C3	inconclusive: 10 µM [cytotoxic, partial curve]	
Cc1cccc(-n2c(=O)c3c(c4cc(C)ccc4n3C)n(CC(=O)N3CCCC3)c2=O)c1	inconclusive: 0.0158 µM [cytotoxic, full curve, poor fit]	
CCOC(=O)c1ccc(N2C(=O)c3[nH]nc(-c4ccccc4)c3C2c2ccc(CC)cc2)cc1 (centres undefined)	inconclusive: 12.6 µM [cytotoxic, single point]	
O=C(Cn1c(=O)n(Cc2nc(-c3ccccc3)no2)c(=O)c2ccccc21)Nc1cccc(C(F)(F)F)c1	inconclusive: 0.158 µM [cytotoxic, full curve, poor fit]	
Cc1oc(-c2ccc(Cl)cc2)nc1CS(=O)CC(=O)NCCN1CCCC1 (centres undefined)	inconclusive: 12.6 µM [cytotoxic, single point]	
O=C(Nc1nnc(C2CC2)o1)c1ccc(S(=O)(=O)N2CCCc3ccccc32)cc1	inconclusive: 7.94 µM [cytotoxic, partial curve]	
Cn1cc(-c2cc3n(n2)CCC(=O)N3CCCC(=O)NCc2ccc(Cl)cc2)c2ccccc21	active: 12.6 µM	

SMILES	Potency	activity change, negative = cell killing
O=C(CSc1nccn1Cc1ccccc1)NCc1ccco1		inactive: -23.6%
Cn1c(/N=C/c2cccs2)nc2ccccc21		inactive: 7.49%
CCC(Sc1nnc2c(n1)[nH]c1ccccc12)C(=O)Nc1nnc(C(C)C)s1 (centres undefined)	active: 10 µM	
Cc1c2cnn(CC(=O)NCc3ccc(F)cc3)c(=O)c2c(C)n1Cc1cccc(Cl)c1	inconclusive: 12.6 µM [cytotoxic, single point]	
C/C(=N\NC(=O)c1csc(C)c1C)c1ccco1	inconclusive: 12.6 µM [cytotoxic, single point]	
Cc1ccc(Cn2c(C(=O)O)c(CNCc3ccc(OC(C)C)cc3)c3ccc(C)cc32)cc1	active: 15.8 µM	
O=C(NCc1ccccc1Cl)c1ccc2c(c1)NC(=O)C(CS(=O)(=O)Cc1ccc(F)cc1Cl)N2 (centres undefined)	inconclusive: 10 µM [cytotoxic, partial curve]	
COCCNC(=O)c1cc(-c2ccc3c(c2)OCO3)on1	inconclusive: 10 µM [cytotoxic, partial curve]	
COc1ccccc1NC(=O)CSc1nnc(N)s1		inactive: -18.4%
CCOC(=O)c1ccc(N2C(=O)c3n[nH]c(-c4cccs4)c3C2c2ccc(OCC)cc2)cc1 (centres undefined)	inconclusive: 20 µM [cytotoxic, partial curve]	
C[Si](C)(C)Cl		inactive: 0.34%
CCOc1ccc(C(=O)/C=C/c2cn(CC(O)CN3CCCCCC3)c3ccccc23)cc1 (centres undefined)	active: 10 µM	
Cc1cccc(C)c1Nc1c(-c2ccccc2F)nc2cccc(C)n12	inconclusive: 28.2 µM [cytotoxic, single point]	
C=CCn1c(SCC(=O)NC(=O)NCc2ccco2)nc2sc(C)c(C)c2c1=O	inconclusive: 20 µM [cytotoxic, single point]	
CC(C)CCn1c(=O)c2cccnc2n(CC(=O)Nc2ccc(F)cc2)c1=O	inconclusive: 15.8 µM [cytotoxic, single point]	
Cc1occc1-c1nnc(SCC(=O)Nc2ccccc2)n1CCc1ccccc1		inactive: -0.0834%
COc1cccc(NC(=O)/C=C\c2ccc(Cl)cc2)c1	inconclusive: 12.6 µM [cytotoxic, partial curve]	
COc1ccc(NC(=O)c2ccc(-c3nc(CSc4ccc(C)cc4)c(C)o3)cc2)cc1Cl	inconclusive: 0.02 µM [cytotoxic, full curve, poor fit]	
COc1ccccc1C(=O)Oc1c(Sc2ccccc2)c(C)nn1C(C)(C)C	inconclusive: 31.6 µM [cytotoxic, single point]	
O=C(Nc1ccc(C(=O)N2CCN(c3cccc(Cl)c3)CC2)cc1)c1nsc2ccccc12	inconclusive: 12.6 µM [cytotoxic, partial curve, poor fit]	
Cc1cc(C)cc(OCC(=O)Nc2nc3c(s2)CC(C(C)(C)C)CC3)c1 (centres undefined)	inconclusive: 3.98 µM [cytotoxic, partial curve]	
O=C(c1ccc(N2CCOCC2)cc1)c1cccs1	active: 7.94 µM	
